Results taken from article PMC12040169 (PLOS Biology, 2025).
This is one part of the list.

System: T1, C. trachomatis L2/434/Bu expressing GFP (CTL2-GFP)
T1 construct: L2/434/Bu GFP intracellular growth in HeLa cells
Design: species or system HeLa; C. trachomatis total inclusion area by high-content imaging, normalised to DMSO
Conditions: total inclusion area; 28.5 h, 10 µM; inhibitor
Method in brief: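 Host cell viability was gauged from Hoechst-stained nuclei counts, while chlamydial growth was taken from total inclusion area and inclusion number per well. Cells were fixed and imaged by high-content microscopy once bulk GFP and resorufin fluorescence had been measured.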

Question: `CC(C)Nc1nc2ccccc2nc1OCCC#N` [CBK115735] was tested. Which “% of control remaining” value did it give?
Answer: 97.6338

Question: For `COc1cccc(NC(=O)CC(CN2CCN(Cc3ccccn3)CC2)C(=O)O)c1` (centres unmarked) [CBK286735], which “% of control remaining” value is on record?
Answer: 106.848

Question: For `Nc1ncc(-c2ccc(C(=O)N3CCOCC3)cc2)nc1-c1cccnc1` [CBK126356], which “% of control remaining” value is on record?
Answer: 105.328

Question: For `COc1ccc(C(=O)NC(N2CCCCC2)C(Cl)(Cl)Cl)cc1` (centres unmarked) [CBK087021], which “% of control remaining” value is on record?
Answer: 102.33

Question: Which “% of control remaining” value does the source give for `COc1ccc(S(=O)(=O)N2CCOCC2)cc1C(=O)Nc1ccc2c(c1)OCO2` [CBK265548] here?
Answer: 105.215

Question: With `Cn1cc(CC2CCN(Cc3ccncc3)C2)cn1` (centres unmarked) [CBK304796] as the compound, how does the “% of control remaining” value read?
Answer: 66.0385

Question: For `CCC1CCCCN1C(=O)c1cccc(C)n1` (centres unmarked) [CBK076750], which “% of control remaining” value is on record?
Answer: 99.2062

Question: For `Cc1cc2c(o1)c1cnn(CC(=O)N(C(C)C)C(C)C)c(=O)c1n2C` [CBK282392], which “% of control remaining” value is on record?
Answer: 97.7372

Question: How did the “% of control remaining” value turn out when `CC(c1ccco1)N(C)Cc1c[nH]nc1-c1ccc(O)cc1` (centres unmarked) [CBK283303] was run?
Answer: 94.5586

Question: How did the “% of control remaining” value turn out when `O=C(CCCN1C(=O)/C(=C/c2ccc3c(c2)OCO3)SC1=S)Nc1ccc([N+](=O)[O-])cc1` [CBK264623] was run?
Answer: 90.5912

Question: `Nc1ncc(-c2cccc(Br)c2)nc1NCCCO` [CBK063603] was tested. Which “% of control remaining” value did it give?
Answer: 71.1329

Question: `CC1=NN(c2ccc([N+](=O)[O-])cc2)C(=O)/C1=C/NCc1ccc(S(N)(=O)=O)cc1` [CBK262670] was tested. Which “% of control remaining” value did it give?
Answer: 105.586

Question: How did the “% of control remaining” value turn out when `Cc1cccc(-c2csc3c(=O)[nH]c(N4CCC(C(=O)N5CCOCC5)CC4)nc23)c1` [CBK215644] was run?
Answer: 128.168

Question: `COc1cc(/C=N/c2ccc(/N=C/c3cc(Br)c(O)c(OC)c3)cc2)cc(Br)c1O` [CBK261843] was tested. Which “% of control remaining” value did it give?
Answer: 107.569

Question: Which “% of control remaining” value does the source give for `Cc1ccc(CC(C#N)Sc2nc(CN3CCOCC3)nc3ccccc23)cc1` (centres unmarked) [CBK298321] here?
Answer: 101.406

Question: With `O=C(CC1NCCNC1=O)Nc1ccc2c(c1)OCCO2` (centres unmarked) [CBK266837] as the compound, how does the “% of control remaining” value read?
Answer: 92.6667

Question: With `COc1ccc(CCNC(=O)C(=O)Nc2ccc(C)c(C)c2)cc1` [CBK263222] as the compound, how does the “% of control remaining” value read?
Answer: 71.3404

Question: For `c1ncc(OC2CCN(CCN3CCOCC3)C2)nc1OCCN1CCOCC1` (centres unmarked) [CBK084492], which “% of control remaining” value is on record?
Answer: 73.5431

Question: How did the “% of control remaining” value turn out when `COCCn1nnnc1C(c1cc2cc(C)cc(C)c2[nH]c1=O)N1CCOCC1` (centres unmarked) [CBK068815] was run?
Answer: 90.4383

Question: For `CCN(CC(O)COc1ccc2ccccc2c1)S(=O)(=O)O` (centres unmarked) [CBK261113K], which “% of control remaining” value is on record?
Answer: 100.923

Question: `COc1ccc(NC2=NN(c3ccccc3)C(=O)C2)cc1` [CBK288085] was tested. Which “% of control remaining” value did it give?
Answer: 90.7951

Question: `Cc1noc(CN2CCN(c3ccc4nnc(C(F)(F)F)n4n3)CC2)n1` [CBK305566] was tested. Which “% of control remaining” value did it give?
Answer: 82.5836

Question: How did the “% of control remaining” value turn out when `O=C(Cn1cccn1)Nc1ccc2c(c1)CN(Cc1ccccc1)C2` [CBK281829] was run?
Answer: 109.347

Question: With `COc1ccc(CCN2C(=O)N[C@@H](CCC(=O)NC3CC3)C2=O)cc1` [CBK288001] as the compound, how does the “% of control remaining” value read?
Answer: 72.7106

Question: `COc1ccc(Nc2cc(-c3cccc(N)c3)ncn2)c(C)c1` [CBK091035] was tested. Which “% of control remaining” value did it give?
Answer: 126.845

Question: Which “% of control remaining” value does the source give for `COc1ccccc1CN(CC(C)(C)CN)C(=O)Nc1ccc(C)c([N+](=O)[O-])c1` [CBK026816C] here?
Answer: 78.0024

Question: With `CCOc1cc2c(cc1OCC)C(c1ccc(OC)c(O)c1)NCC2` (centres unmarked) [CBK074443C] as the compound, how does the “% of control remaining” value read?
Answer: 80.4336

Question: `Cc1noc(C)c1S(=O)(=O)NCc1ccc(C(F)(F)F)c(F)c1` [CBK062112] was tested. Which “% of control remaining” value did it give?
Answer: 80.9814

Question: How did the “% of control remaining” value turn out when `CN1CCN(CCC(=O)N/N=C/c2ccsc2)CC1` [CBK261505] was run?
Answer: 111.7

Question: For `O=C(Cc1c[nH]c2ccccc12)N1CCC2(CCN(C(=O)c3ccc4[nH]c(=O)[nH]c4c3)C2)C1` (centres unmarked) [CBK131452], which “% of control remaining” value is on record?
Answer: 112.529

Question: With `O=C(NCc1cccnc1)C1CCCN(c2nc3c(-c4ccccc4)csc3c(=O)[nH]2)C1` (centres unmarked) [CBK215492] as the compound, how does the “% of control remaining” value read?
Answer: 91.8726

Question: Which “% of control remaining” value does the source give for `Cc1cc(C(=O)Nc2sc(C)c(C)c2C(=O)NCc2cccnc2)no1` [CBK268134] here?
Answer: 86.4988

Question: `O=S(=O)(NCc1cccc(Cl)c1)c1csc2ccnc(N3CCNCC3)c12` [CBK045595C] was tested. Which “% of control remaining” value did it give?
Answer: 78.3357

Question: How did the “% of control remaining” value turn out when `CCCS(=O)(=O)NC(C)c1cnn(-c2ccc(OC)cc2)c1C` (centres unmarked) [CBK307319] was run?
Answer: 79.6463

Question: With `CC(C)c1ccc(S(=O)(=O)N2CCN(c3ccc(C#N)cc3)CC2)cc1` [CBK044404] as the compound, how does the “% of control remaining” value read?
Answer: 61.9265

Question: With `Cc1ccccc1-c1ccccc1CC1(C(N)=O)CCN(C(=O)c2cccc(F)c2)CC1` [CBK285726] as the compound, how does the “% of control remaining” value read?
Answer: 105.44

Question: How did the “% of control remaining” value turn out when `CCn1c(CC2CCN(C(=O)CCn3cc(C)cn3)CC2)nn(C)c1=O` [CBK307584] was run?
Answer: 85.1127

Question: `CCCc1nn(CC(=O)NC2CC2)c(=O)c2cc3ccsc3n12` [CBK284146] was tested. Which “% of control remaining” value did it give?
Answer: 92.1312

Question: Which “% of control remaining” value does the source give for `Cn1cc(C2CNCCN2C(=O)c2coc3ccccc23)cn1` (centres unmarked) [CBK304270C] here?
Answer: 71.6732

Question: `Cc1oc2ccc(O)cc2c1C(=O)N(C)CCN1CCCCC1` [CBK282158] was tested. Which “% of control remaining” value did it give?
Answer: 83.3619

Question: `CCOc1cccc(NC(=O)/C(C#N)=C\c2cc(C)n(-c3ccc4c(c3)OCO4)c2C)c1` [CBK263191] was tested. Which “% of control remaining” value did it give?
Answer: 90.463

Question: With `CS(=O)(=O)Nc1cccc(C2=NN(C(=O)CCC(=O)O)C(c3cccc(F)c3)C2)c1` (centres unmarked) [CBK268804] as the compound, how does the “% of control remaining” value read?
Answer: 129.097

Question: With `CC(CNS(=O)(=O)c1ccc(N2CCCC2=O)cc1)Cn1cccn1` (centres unmarked) [CBK304656] as the compound, how does the “% of control remaining” value read?
Answer: 104.407

Question: For `Cc1ccc(-n2c(=O)[nH]cc(C(=O)Nc3cccc(Cl)c3C)c2=O)cc1C` [CBK287551], which “% of control remaining” value is on record?
Answer: 96.456

Question: How did the “% of control remaining” value turn out when `c1csc(N2CCCN(c3nccn4cnnc34)CC2)n1` [CBK305190] was run?
Answer: 1.972

Question: How did the “% of control remaining” value turn out when `COc1ncc(-c2ccc(NCCn3cc[nH]c3=O)nc2)c(OC)n1` [CBK037719] was run?
Answer: 101.979

Question: Which “% of control remaining” value does the source give for `CC1(C)CC(N(Cc2ccccc2)C(=O)Cc2ccco2)CCO1` (centres unmarked) [CBK019561] here?
Answer: 82.0529

Question: Which “% of control remaining” value does the source give for `O=[N+]([O-])c1ccc2[nH]c3c(c2c1)CCCC3NC1CCN(CCc2ccccc2)CC1` (centres unmarked) [CBK262874] here?
Answer: 7.552

Question: How did the “% of control remaining” value turn out when `Cc1cccc(C(=O)Nc2nc3ccc(S(C)(=O)=O)cc3s2)c1` [CBK287323] was run?
Answer: 116.488

Question: `Cc1cccc(S(=O)(=O)N2CCN(C)CC2)c1` [CBK097893] was tested. Which “% of control remaining” value did it give?
Answer: 99.7825
